Among all 280,000 compounds or so, about 1,100 (0.39%) were called active. Inconclusive means that the source gave no clear call. Such entries were picked first, then a sample of the others. Calls follow the shape of the dose curve; as a rule, active = well fitted inhibition curve with a large enough effect; inconclusive = small, poorly fitted or top-dose-only effect, or effect the other way; inactive = flat fitted curve, though single readings scatter. Potencies of inconclusive entries are doubtful fits and often do not repeat.
Molecular target: Microtubule-associated protein tau (Homo sapiens) (UniProt P10636)
Assay: qHTS for Inhibitors of Tau Fibril Formation, Fluorescence Polarization; also: nearly all actives have a fitted effect of over 55% in size
Details: K18 P301L tau heparin fibrillization, Alexa594 FP, 6 h; series mostly up to 57.7 µM
In short: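 Compound effects on tau fibrillization are measured by Alexa 594 fluorescence polarization (ex 555, em 632 nm). K18 P301L tau is used at 15 uM with 0.24 uM labeled tracer, and 20 uM heparin induces aggregation over 6 hr at 37 C.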
Potency is read from the fitted curve at half-maximal effect; tags tell the direction and shape of the fitted curve.

UniProt P10636, sequence (P10636 whole entry, looked up): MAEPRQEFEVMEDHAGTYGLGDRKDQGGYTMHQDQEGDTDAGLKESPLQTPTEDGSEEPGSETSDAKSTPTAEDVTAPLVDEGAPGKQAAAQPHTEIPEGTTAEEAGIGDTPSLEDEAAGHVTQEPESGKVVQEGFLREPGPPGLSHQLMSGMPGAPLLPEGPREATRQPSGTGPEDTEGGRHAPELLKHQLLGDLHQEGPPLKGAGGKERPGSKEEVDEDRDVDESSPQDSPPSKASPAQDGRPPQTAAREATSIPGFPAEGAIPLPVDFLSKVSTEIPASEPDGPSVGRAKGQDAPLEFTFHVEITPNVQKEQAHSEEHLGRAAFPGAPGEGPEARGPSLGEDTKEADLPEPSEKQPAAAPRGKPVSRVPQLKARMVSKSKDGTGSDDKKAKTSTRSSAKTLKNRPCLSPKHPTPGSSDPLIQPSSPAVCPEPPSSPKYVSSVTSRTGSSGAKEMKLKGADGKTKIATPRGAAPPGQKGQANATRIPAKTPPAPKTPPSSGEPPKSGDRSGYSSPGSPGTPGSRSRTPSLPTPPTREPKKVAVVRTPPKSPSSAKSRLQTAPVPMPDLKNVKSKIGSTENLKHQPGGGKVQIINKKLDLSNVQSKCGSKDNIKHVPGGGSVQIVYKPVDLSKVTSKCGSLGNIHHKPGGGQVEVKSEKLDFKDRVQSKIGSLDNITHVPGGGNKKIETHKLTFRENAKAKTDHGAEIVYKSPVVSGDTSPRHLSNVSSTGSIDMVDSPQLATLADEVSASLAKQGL

Potency, inactive:
CCCCNC(=O)CCCCn1c(=S)[nH]c2c([nH]c3ccc(OC)cc32)c1=O
COc1ccc(C(=O)/C=C2\Sc3ccccc3N2C)cc1
CSc1nnc([C@@H](NC(=O)OC(C)(C)C)C(C)C)o1
Cc1cc(C)nc(SCc2csc(-c3ccccc3)n2)n1
O=C(O)C1OC(O)C(O)C(O)C1O (stereo not drawn)
COc1cccc(NC=C2C(=O)OC(C)(C)OC2=O)c1
CCCCNC(=O)C1C2C=CC(C2)C1C(=O)O (stereo not drawn)
CCNC(=S)Nc1ccc(Cl)c(C(F)(F)F)c1
COc1cc(OC)c(C2=NOC(C(=O)N3CCc4ccccc4C3)C2)cc1Cl (stereo not drawn)
CC(C)Cn1c(=S)[nH]c2cc(Cl)ccc21
C=CCn1c(O)c(N=NC(=O)CNC(=O)/C=C/c2ccc(OC)cc2)c2ccccc21
CCOc1ccc(OCC)c(C2C(C#N)=C(N)N(c3cccnc3)C3=C2C(=O)CC(C)(C)C3)c1 (stereo not drawn)
COc1ccc(/C=C(\C#N)C(=O)NCC2CCCO2)cc1OC (stereo not drawn)
CCOC(=O)CC1CCCCN1Cc1nc(-c2ccc(F)c(OC)c2)oc1C (stereo not drawn)
Cc1ccc2c(c1)Sc1c(ccc3ccccc13)N2
Cc1cc(N=CC2=C(O)CC(C)(C)CC2=O)no1
NC(=S)N/N=C/c1ccccc1OCc1cccc(Cl)c1
Cc1cccc(N2CCN(C(=O)Cc3cn(C)c4ccccc34)CC2)c1C
O=C(c1ccc(=O)oc1)N1CCCc2ccccc21
O=C(Cn1nc(N2CCN(c3ccccc3)CC2)ccc1=O)NCc1cccc(Cl)c1
CNC(=O)CSc1nc2nc(C)cc(C)n2n1
CCC(CO)Nc1ncnc2c1cnn2-c1ccc(C)cc1 (stereo not drawn)
CCO[C@@H]1OC(C(=O)N2CCN(Cc3ccccc3)CC2)=C[C@H](c2coc3ccccc3c2=O)[C@H]1CCCO

Potency, inconclusive:
COc1ccc(C2=NC3(CCCCC3)N(CC(=O)Nc3ccc(C(C)C)cc3)C2=O)cc1 28.2 µM [inhibitor, partial curve]
Cc1noc(C)c1-c1nc(Nc2ccncc2)c2ccccc2n1 31.6 µM [inhibitor, single point]
Cn1c(=O)c2c(-c3ccccc3)n3c(c2n(C)c1=O)C(c1ccccc1[N+](=O)[O-])Nc1ccccc1-3 (stereo not drawn) 17.8 µM [inhibitor, partial curve]
CCC(=O)Nc1ccc(NC(=O)CSc2nc3cc4c(cc3cc2C)CCC4)cc1 17.8 µM [inhibitor, single point]
COc1ccccc1NC(=O)COC(=O)/C=C/c1ccc2c(c1)OCO2 22.4 µM [inhibitor, single point]
COc1cccc(Oc2ccc(C(F)(F)F)cc2N)c1 8.91 µM [activator, single point]
O=C(Nc1ccc2oc(-c3cccc4c(Br)cccc34)nc2c1)c1ccc(F)cc1 14.1 µM [inhibitor, partial curve]
CCC(=O)Nc1ccc(Nc2nc(C)c([N+](=O)[O-])c(Nc3ccc(NC(=O)CC)cc3)n2)cc1 1.78 µM [activator, full curve, poor fit]
CCCOc1ccc(N2C(=O)CC(N3CCN(CCN=CC4C(=O)CC(C)(C)CC4=O)CC3)C2=O)cc1 (stereo not drawn) 5.62 µM [inhibitor, single point]
O=C(C(=O)N1CCN(c2cccc(Cl)c2)CC1)c1c[nH]c2ccccc12 15.8 µM [inhibitor, partial curve]
C=C(C)COc1ccc(-c2nc(N)ncc2Oc2ccccc2OCC)c(O)c1 14.1 µM [inhibitor, partial curve]
CCOC(=O)N/N=C1/C[C@@H](O)[C@@H](O)[C@@H]2[C@@H]3C(=O)N(Cc4ccccc4)C(=O)[C@H]3CC[C@H]12 0.891 µM [inhibitor, full curve, poor fit]
CCC(=NCCN1CCNCC1)C1=C(O)CC(C)(C)CC1=O 39.8 µM [inhibitor, single point]
Cc1ccc(N=Cc2c(O)n(-c3cc(Cl)ccc3N3CCOCC3)c(=O)c3ccccc23)cc1C 39.8 µM [inhibitor, single point]
Cn1c(=O)cc(SCC(=O)Nc2cccc(C#N)c2)c2ccc(Cl)cc21 17.8 µM [inhibitor, partial curve]
Cc1cc(C)cc(Oc2nc(-c3ccccc3)cc(C)c2S(C)(=O)=O)c1 3.16 µM [inhibitor, single point]
O=[N+]([O-])c1ccc(N/N=C/c2c[nH]c3ccccc23)cc1 39.8 µM [inhibitor, single point]
CCc1ccccc1NC(=O)Nc1cc(F)ccc1F 15.8 µM [inhibitor, single point]
COc1ccccc1C(=O)NC(=S)Nc1ccc(NC(=O)c2cccs2)cc1 20 µM [inhibitor, partial curve]
Cn1c2ccccc2c2cc(C(=O)OCC(=O)N3CC(=O)Nc4ccccc43)sc21 28.2 µM [inhibitor, single point]
CCOc1ccccc1Nc1nnc(SCC(=O)Nc2nc(-c3ccc(OC)cc3)cs2)s1 22.4 µM [inhibitor, single point]
C=C(C)C1(O)OC(=O)C=C1OC (stereo not drawn) 1.26 µM [activator, single point]
Cc1ccccc1NCC(=O)N/N=C\C=C\c1cccc([N+](=O)[O-])c1 39.8 µM [activator, single point]
O=C(CCn1c(=O)c2cccn2c2ccc(F)cc21)NCCc1ccccc1Cl 22.4 µM [inhibitor, single point]
COc1ccccc1NC(=O)Cn1c(=O)n(Cc2ccccc2)c(=O)c2ccccc21 17.8 µM [inhibitor, partial curve, poor fit]
CCN(c1ccccc1)S(=O)(=O)c1cc(NC(=O)COC(=O)C2CC2)ccc1Cl 20 µM [inhibitor, single point]
CCN(CC)C(=O)CSc1nc2ccccc2c(=O)n1CC 25.1 µM [inhibitor, single point]
COc1cccc(NC(=O)c2oc3ccccc3c2NC(=O)C23CC4CC(CC(C4)C2)C3)c1 3.55 µM [inhibitor, full curve]
CC(=O)N[C@@H](Cc1c[nH]c2ccccc12)C(=O)OCc1cc(C(F)(F)F)cc(C(F)(F)F)c1 39.8 µM [activator, single point]
COC(=O)c1ccc(NC(=O)Cc2coc3cc(C)ccc23)cc1 20 µM [inhibitor, partial curve, poor fit]
CC(C)COc1cccc(C(=O)NC(=S)Nc2cccc(NC(=O)c3ccccc3Cl)c2)c1 22.4 µM [inhibitor, partial curve]
Nc1nnc(SCC(=O)OCc2ccc(Cl)c(Cl)c2)s1 2.82 µM [inhibitor, partial curve]
O=C(c1coc2ccc(O)c(CN3CCOCC3)c12)C1CC1 31.6 µM [activator, single point]
O=C(NCC1CC1)c1ccc2c3n(nc2c1)-c1ccccc1CO3 0.126 µM [activator, full curve, poor fit]
Cc1ccccc1CN1CCc2nc(Nc3ccc4c(c3)OCCO4)ncc2C1 44.7 µM [activator, single point]
Cc1ccc(S(=O)(=O)Nc2cc(C(=O)Nc3cc(C)cc(C)c3)ccc2Cl)cc1 22.4 µM [inhibitor, single point]
O=C(Cc1nnc(NC(=O)Nc2ccc(Cl)cc2)s1)NCc1ccccc1 25.1 µM [inhibitor, partial curve]
COc1ccc(-n2c(/C=C/c3cc(OC)c(OC)cc3OC)nc3cc4ccccc4cc3c2=O)cc1Cl 6.31 µM [activator, partial curve]
Cc1ccc(OCCSc2nc3ccc(NC(=O)COc4ccc(F)cc4)cc3s2)cc1 20 µM [inhibitor, single point]
Cn1nnnc1SCC1=C(C(=O)O)N2C(=O)C(NC(=O)C(O)c3ccccc3)C2SC1 (stereo not drawn) 6.31 µM [inhibitor, partial curve]
CCOC(=O)/C=C/C(=O)Nc1ccc(S(=O)(=O)N(C)c2ccccc2)cc1 1.26 µM [inhibitor, full curve, poor fit]
CC1=C(C(=O)Nc2ccccc2)C(c2ccco2)C(C#N)=C(SCc2ccccc2)N1 (stereo not drawn) 15.8 µM [inhibitor, partial curve]
COc1ccc(-c2cc3nc(-c4ccccc4)cc(N4CCCC(O)C4)n3n2)cc1 (stereo not drawn) 8.91 µM [inhibitor, partial curve, poor fit]
Cc1nc2c(ncn2-c2ccccc2)c(=O)n1NC(=O)CN1CCCC1 39.8 µM [inhibitor, single point]
Cc1ccc(-n2ncc3c(NCCc4ccccc4)ncnc32)cc1C 14.1 µM [inhibitor, partial curve]
